Our source for the EC50 values is patent US20250361299A1 (published 2025).

For one experiment, the target named is Recombinant human EGFR (human, UniProt P00533 part only). The experiment can be described thus: ELISA; without uPA.
Experiment [1] deals with T1, Human CD3 protein (human, UniProt P07766 23-126).
T1 chain: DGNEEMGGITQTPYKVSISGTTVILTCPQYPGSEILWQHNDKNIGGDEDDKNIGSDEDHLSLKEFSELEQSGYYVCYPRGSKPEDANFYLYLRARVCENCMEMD
The experiment can be described thus: ELISA; without uPA. Background: An ELISA detects its analyte on a solid surface through an enzyme-linked reagent.

The target in experiment [2] is T1, Human CD3 protein. The experiment can be described thus: ELISA; with uPA.
In experiment [3] the target is T1, Human CD3 protein. The experiment can be described thus: ELISA; with uPA.
Experiment [4] addresses T1, Human CD3 protein. The experiment can be described thus: ELISA; without uPA.
Experiment [5] has as its target T1, Human CD3 protein. The experiment can be described thus: ELISA.

B1: 1.4.3-Pa proBiTE (bispecific antibody)
heavy: QDGNEEMGGIGGGSQDGNEEMGGGGGSGGGSGLSGRSDNHGGSEVQLVESGGGLVQPGGSLRLSCAASGFTFNTYAMNWVRQAPGKGLEWVARIRSKYNNYATYYADSVKGRFTISRDDSKNTLYLQMNSLRAEDTAVYYCARHGNFGSSYVSYFAYWGQGTTVTVSSGGGSSGGGGSGGGGSQVQLQESGPGLVKPSETLSLTCTVSGGSVSSGDYYWTWIRQSPGKGLEWIGHIYYSGNTNYNPSLKSRLTISIDTSKTQFSLKLSSVTAADTAIYYCVRDRVTGAFDIWGQGTMVTVSSASTKGPSVFPLAPSSKSTSGGTAALGCLVKDYFPEPVTVSWNSGALTSGVHTFPAVLQSSGLYSLSSVVTVPSSSLGTQTYICNVNHKPSNTKVDKKVEPKS[human IgG1 Fc with T366L Y407H (EU numbers) cut from this listing]
light: EIVVTQSPATLSVSPGERATLSCRSSTGAVTTSNYANWVQQKPGQAPRGLIGGANKRAPGVPARFSGSLSGDEATLTISSLQSEDFAVYYCALWYSNLWVFGQGTKLEIKGGGGSGGGGSGGGGSDIQMTQSPSSLSASVGDRVTITCQASQDISNYLNWYQQKPGKAPKLLIYDASNLETGVPSRFSGSGSGTDFTFTISSLQPEDIATYFCQHFDHLPLAFGGGTKVEIKRTVAAPSVFIFPPSDEQLKSGTASVVCLLNNFYPREAKVQWKVDNALQSGNSQESVTEQDSKDSTYSLSSTLTLSKADYEKHKVYACEVTHQGLSSPVTKSFNRGE[human IgG1 Fc with T366L Y407H (EU numbers) cut from this listing]
With B1, the values for the EC50 with Recombinant human EGFR and with Human CD3 protein [1] were 0.193 µg/mL and ~29.9 µg/mL, respectively.

B2: 1.5 proBiTE after uPA digestion (bispecific antibody)
heavy: QDGNEEMGGITQTPYGGGSGGGSGGGSGLSGRSDNHGGSEVQLVESGGGLVQPGGSLRLSCAASGFTFNTYAMNWVRQAPGKGLEWVARIRSKYNNYATYYADSVKGRFTISRDDSKNTLYLQMNSLRAEDTAVYYCARHGNFGSSYVSYFAYWGQGTTVTVSSGGGSSGGGGSGGGGSEVQLVETGGGVVQPGRSLRLSCAASGFTFSSYAMHWVRQAPGKGLEWVAVISYDGSNKYYADSVKGRFTISRDNSKNTLYLQMNSLRAEDTAVYYCARGYVARGDFDYWGQGTLVTVSSASTKGPSVFPLAPSSKSTSGGTAALGCLVKDYFPEPVTVSWNSGALTSGVHTFPAVLQSSGLYSLSSVVTVPSSSLGTQTYICNVNHKPSNTKVDKKVEPKS[human IgG1 Fc with T366L Y407H (EU numbers) cut from this listing]
light: QDGNEEMGGITQTPYGGGSGGGSGGGSGLSGRSDNHGGSEIVVTQSPATLSVSPGERATLSCRSSTGAVTTSNYANWVQQKPGQAPRGLIGGANKRAPGVPARFSGSLSGDEATLTISSLQSEDFAVYYCALWYSNLWVFGQGTKLEIKGGGGSGGGGSGGGGSDVVMTQSPSTLSASVGDRVTITCRASQSMSRWLAWYQQKPGKGPKLLIYATSTLQSGVPSRFSGSGSGTEFTLTISSLQPEDFATYYCQQLDSFPFSFTFGPGTKVDLKRTVAAPSVFIFPPSDEQLKSGTASVVCLLNNFYPREAKVQWKVDNALQSGNSQESVTEQDSKDSTYSLSSTLTLSKADYEKHKVYACEVTHQGLSSPVTKSFNRGE[human IgG1 Fc with T366L Y407H (EU numbers) cut from this listing]
In the case of B2, in the experiment with Human CD3 protein [2], the EC50 was 6.78 µg/mL.

B3: 1.2 proBiTE after uPA digestion (bispecific antibody)
heavy: SDNHGGSEVQLVESGGGLVQPGGSLRLSCAASGFTFNTYAMNWVRQAPGKGLEWVARIRSKYNNYATYYADSVKGRFTISRDDSKNTLYLQMNSLRAEDTAVYYCARHGNFGSSYVSYFAYWGQGTTVTVSSGGGSSGGGGSGGGGSEVQLVETGGGVVQPGRSLRLSCAASGFTFSSYAMHWVRQAPGKGLEWVAVISYDGSNKYYADSVKGRFTISRDNSKNTLYLQMNSLRAEDTAVYYCARGYVARGDFDYWGQGTLVTVSSASTKGPSVFPLAPSSKSTSGGTAALGCLVKDYFPEPVTVSWNSGALTSGVHTFPAVLQSSGLYSLSSVVTVPSSSLGTQTYICNVNHKPSNTKVDKKVEPKS[human IgG1 Fc with T366L Y407H (EU numbers) cut from this listing]
light: EIVVTQSPATLSVSPGERATLSCRSSTGAVTTSNYANWVQQKPGQAPRGLIGGANKRAPGVPARFSGSLSGDEATLTISSLQSEDFAVYYCALWYSNLWVFGQGTKLEIKGGGGSGGGGSGGGGSDVVMTQSPSTLSASVGDRVTITCRASQSMSRWLAWYQQKPGKGPKLLIYATSTLQSGVPSRFSGSGSGTEFTLTISSLQPEDFATYYCQQLDSFPFSFTFGPGTKVDLKRTVAAPSVFIFPPSDEQLKSGTASVVCLLNNFYPREAKVQWKVDNALQSGNSQESVTEQDSKDSTYSLSSTLTLSKADYEKHKVYACEVTHQGLSSPVTKSFNRGE[human IgG1 Fc with T366L Y407H (EU numbers) cut from this listing]
Take B3: in the experiment with Human CD3 protein [2], a half-maximal effect (EC50) was put at 0.591 µg/mL.

B4: 1.4.3 proBiTE after uPA digestion (bispecific antibody)
heavy: B3 heavy
light: B3 light
B4 yielded an EC50 with Human CD3 protein [3] of 2.71 µg/mL.

B5: 1.4.3 proBiTE (bispecific antibody)
heavy: QDGNEEMGGIGGGSQDGNEEMGGGGGSGGGSGLSGRSDNHGGSEVQLVESGGGLVQPGGSLRLSCAASGFTFNTYAMNWVRQAPGKGLEWVARIRSKYNNYATYYADSVKGRFTISRDDSKNTLYLQMNSLRAEDTAVYYCARHGNFGSSYVSYFAYWGQGTTVTVSSGGGSSGGGGSGGGGSEVQLVETGGGVVQPGRSLRLSCAASGFTFSSYAMHWVRQAPGKGLEWVAVISYDGSNKYYADSVKGRFTISRDNSKNTLYLQMNSLRAEDTAVYYCARGYVARGDFDYWGQGTLVTVSSASTKGPSVFPLAPSSKSTSGGTAALGCLVKDYFPEPVTVSWNSGALTSGVHTFPAVLQSSGLYSLSSVVTVPSSSLGTQTYICNVNHKPSNTKVDKKVEPKS[human IgG1 Fc with T366L Y407H (EU numbers) cut from this listing]
light: B3 light
The molecule B5 had an EC50 with Human CD3 protein [4] of 72.7 µg/mL.

B6: 1.3 proBiTE after uPA digestion (bispecific antibody)
heavy: B3 heavy
light: B3 light
B6 registered an EC50 in the experiment with Human CD3 protein [2] of 0.633 µg/mL.

B7: 1.4-Noncleavable (antibody)
chain 1: QDGNEEMGGIGGGSQDGNEEMGGGGGSGGGSGGGSGLSGGAGNHGGSEVQLVESGGGLVQPGGSLRLSCAASGFTFNTYAMNWVRQAPGKGLEWVARIRSKYNNYATYYADSVKGRFTISRDDSKNTLYLQMNSLRAEDTAVYYCARHGNFGSSYVSYFAYWGQGTTVTVSSGGGSSGGGGSGGGGSEVQLVETGGGVVQPGRSLRLSCAASGFTFSSYAMHWVRQAPGKGLEWVAVISYDGSNKYYADSVKGRFTISRDNSKNTLYLQMNSLRAEDTAVYYCARGYVARGDFDYWGQGTLVTVSSASTKGPSVFPLAPSSKSTSGGTAALGCLVKDYFPEPVTVSWNSGALTSGVHTFPAVLQSSGLYSLSSVVTVPSSSLGTQTYICNVNHKPSNTKVDKKVEPKS[human IgG1 Fc with T366L Y407H (EU numbers) cut from this listing]
chain 2: B3 light
B7 returned an EC50 in the experiment with Human CD3 protein [5] of 23.5 µg/mL.

B8: 1.4.1 proBiTE after uPA digestion (bispecific antibody)
heavy: B3 heavy
light: B3 light
B8 displayed an EC50 in the experiment with Human CD3 protein [2] of 1.09 µg/mL.

B9: 1.1 proBiTE after uPA digestion (bispecific antibody)
heavy: B3 heavy
light: B3 light
In the experiment with Human CD3 protein [2], B9 showed an EC50 of 0.608 µg/mL.

B10: 1.4 proBiTE after uPA digestion (bispecific antibody)
heavy: B3 heavy
light: B3 light
B10 displayed an EC50 with Human CD3 protein [2] of 0.73 µg/mL.

As usually defined, the EC50 is the concentration needed to bring the measured effect to its halfway point.
